From PMC12136788
The list shows a part of the results.

T1: UNK ZnF1-3 (human, UniProt Q9C0B0 31-174)
T1 sequence: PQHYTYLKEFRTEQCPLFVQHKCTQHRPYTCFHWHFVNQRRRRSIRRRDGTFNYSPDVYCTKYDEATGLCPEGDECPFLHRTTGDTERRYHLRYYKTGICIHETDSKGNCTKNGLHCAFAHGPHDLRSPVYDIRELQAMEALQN

B1: 19447899_19449338_9892_CDS_ENSG00000127481_ENST00000375254|human|control|control (ssRNA)
RNA: GGGAGUUCUACAGUCCGACGAUCACUGACUUGGAGGAGGAAGUACAGGACGGAGUCAUCUUUGAUGCAGAAUUUCUGCCAGUUGAUGGUUCGCUGGGCGGCAAUCUCUGCACAGGCUUUCAGGUGCUCCAUCAGGCUGAUGAGCAACAGAGGAUUGAGCAUCA
B2: 59577159_59578459_2520_CDS_ENSMUSG00000021557_ENSMUST00000164215|mouse|control|control (ssRNA)
RNA: GGGAGUUCUACAGUCCGACGAUCUUUUUGAAGAUGCAUCUGCAGAGUCGAGUACGUGUAUGGAUAGUGAUAGGCGAAAUAGCAGACAUCGUCCUUGUGCGGGAAGUUCACGGUGAAGGUGAUGGUGUAGUAGGACUUGCCCUUCAACAGAGGAUUGAGCAUCA
B3: 98288980_98289100_1136_CDS_ENSG00000180543_ENST00000322128|human|control|control (ssRNA)
RNA: GGGAGUUCUACAGUCCGACGAUCCUUGUCAGACUCAAUGGAGCUGUGGUUUGAAAACCACCCAAAGAAACUACGGUUGUUUUCUGGGUUUCCCUGGCUUAGGGACUGGAGAUCAUGCCCUGGGAGCCACUGGAUUGGAGUAGACAACAGAGGAUUGAGCAUCA
B4: chr14:89338683:89338684:+_ENSG00000165533_ENST00000346301|hu_hu|hu_hu_hu_mus_False|38_48 (ssRNA)
RNA: GGGAGUUCUACAGUCCGACGAUCGUGGUUGUUGUGGACCAGGGCCAGCCUGAAGCAUUGGUGGGCCAAGUUUGUAUCUCCGAUUCCCACAGCUACAUGUCCCAAGUUGUACCAGACAUCAGCUGCCUCUUCUUCAUUUUCAGCCAACAGAGGAUUGAGCAUCA
B5: chr11:29606814:29606815:+_ENSMUSG00000020458_ENSMUST00000102843|mus_mus|FALSE|FALSE (ssRNA)
RNA: GGGAGUUCUACAGUCCGACGAUCCACUUUAGUAAGGGUCGCAGGUGACUCUUGUGGAUUAUGAAGGGCUGCACUACAAACUAAAUCCUCUUUGUCUUUACUCCUCACAAUUACUUCUUCCUUAGUGUUUUCUACUAACAUGGCCAACAGAGGAUUGAGCAUCA
B6: chr2:178096726:178096727:-_ENSG00000116044_ENST00000397062|hu_hu|FALSE|FALSE (ssRNA)
RNA: GGGAGUUCUACAGUCCGACGAUCCAGUUUGGCUUCUGGACUUGGAACCAUGGUAGUCUCAACCAGCUUGUCAUUUUCAAUAUUAAGACACUGUAACUCAGGAAUGGAUAAUAGCUCCUCCCAAACUUGCUCAAUGUCCUGUUGCAACAGAGGAUUGAGCAUCA
B7: chr16:45382771:45382772:-_ENSMUSG00000022661_ENSMUST00000163230|mus_mus|mus_mus_mus_hu_True|78_78 (ssRNA)
RNA: GGGAGUUCUACAGUCCGACGAUCCUGGGUCAUGUUAUAAGACAAAUGGACAGGGAGAGCAUGCUUUUCAAAAAAUGUGAGCUAUUGUCUAAGACUAACAAUAUUUAUCUAGCUAUAAAAAUAAGUUAAAUGAAUAAGUUAAGACAACAGAGGAUUGAGCAUCA
B8: 54242455_54242575_5818_CDS_ENSMUSG00000061603_ENSMUST00000095737|mouse|control|control (ssRNA)
RNA: GGGAGUUCUACAGUCCGACGAUCGUCGUGCUUGGAUUCAGAAAUCUUUUUCACAUUUGAAGCAAGGUUCGCUGAUGCCUCUGGGAUCUCUGGCUUCUCCUUUUCUCUCUCUGGAGUACUUUCAACAUUGCCAUUUUCCAUGUCCAACAGAGGAUUGAGCAUCA
B9: chr10:59412704:59412705:-_ENSMUSG00000020108_ENSMUST00000020308|mus_mus|motif|central (ssRNA)
RNA: GGGAGUUCUACAGUCCGACGAUCCUGGCUGCAGCUCCCAGGUGUAAUUUUGUUUCAAGUGUCGAAGAUCCCGAAUGAUCCGGACACCCACCCCAUUCCUACUCUUACAUUCAUGCAGUCUGUAAGAUAGCUGCCUCGAACAGGCAACAGAGGAUUGAGCAUCA
B10: chr4:107087291:107087292:+_ENSMUSG00000028614_ENSMUST00000139560|mus_mus|FALSE|FALSE (ssRNA)
RNA: GGGAGUUCUACAGUCCGACGAUCUGCUUAGUCGUGUACCUUAAGAUUUCAAUUUUUCUACAUUCCUUUAUAUAGAGUUAACAUCUGUAAAUCGAGACUCUUUUUGGACAAUCAUGCAAAUUUAAUUUGUCCCUGGAAACAAAACAACAGAGGAUUGAGCAUCA
B11: chrX:123197699:123197700:+_ENSG00000101972_ENST00000371157|hu_mus|motif|central (ssRNA)
RNA: GGGAGUUCUACAGUCCGACGAUCUGUGUGCUUCUCUACAAUAUUUCGGAUCUGGCGCAAUAAGGCAUCCAAAUGCUUUUCGGAUCGUCCAGUGGUGUAUAUCUCCAAAUCAAAGUACUGAGGUAACUGCAACAAAUUGGUCACCAACAGAGGAUUGAGCAUCA
B12: chr15:102110757:102110758:+_ENSMUSG00000045665_ENSMUST00000051341|mus_mus|motif|central (ssRNA)
RNA: GGGAGUUCUACAGUCCGACGAUCGUAGGGAGCUUGGAGCCAGUCCGCUGCCAGGGCCAGAAAGUAGACUUGAUAGAAGUCGGGUUGAAACUGAAGGAAGGAGGGGUUGCUGCAAGCUCUUCCAGGGGGCCUGGCUCUGCAUCUCAACAGAGGAUUGAGCAUCA
B13: chr2:216981417:216981418:+_ENSG00000079246_ENST00000392132|hu_hu|hu_hu_hu_mus_True|1_108 (ssRNA)
RNA: GGGAGUUCUACAGUCCGACGAUCCUGAUACUGAUCCUUGCCAGCAAGGGCAUUAUCAGUGCCAUCUGUGCCAUAGAGGACUAACGCAAUCUCAUCUUUGCUCUCCGAAAAUACCUGUCGUUGGACAAACAUAGUCAUCACCUUCAACAGAGGAUUGAGCAUCA
B14: 25615947_25616067_1297_3pUTR_ENSG00000114062_ENST00000438097|human|control|control (ssRNA)
RNA: GGGAGUUCUACAGUCCGACGAUCUCCAUUUCUAGAACCUCAUUCAGUGGUUCAUUAAUAAACUCUUCAAAAGGGAUAAGUGGUUUUCGACAAUCCAGGGUUUUAACACCAAGUUCAGUUUCCAGGGGGUCCACUCGAGGACCUCAACAGAGGAUUGAGCAUCA
B15: 95310097_95310418_3252_CDS_ENSMUSG00000034088_ENSMUST00000170883|mouse|control|control (ssRNA)
RNA: GGGAGUUCUACAGUCCGACGAUCUACUCGAUCCAGUAGCCCCGCCUUAGCCCUGUCCAAAUUUGCUGCAAGGCCAGUGAUGGCGAUGGUGUCUGACUGCAGCUCGGGGGCUGGUACAUGGAUGUUCACCUCAAACUCAUCCAUCAACAGAGGAUUGAGCAUCA
B16: 66531988_66532108_1953_CDS_ENSMUSG00000025326_ENSMUST00000107537|mouse|control|control (ssRNA)
RNA: GGGAGUUCUACAGUCCGACGAUCUUCAAAGGAGAUAAGUGGUUUUCGACAGUCUAGAGUUUUAACGCCAAGUUCGGUUUCUAGUGGAUCCACUCGAGGACCUUUCUUAUUUCUUCUUUCAUCUCCCAGAAGCUCCUGAAGUGUCAACAGAGGAUUGAGCAUCA
B17: chr4:148551591:148551592:-_ENSMUSG00000063077_ENSMUST00000060537|mus_hu|mus_mus_mus_hu_False|8_68 (ssRNA)
RNA: GGGAGUUCUACAGUCCGACGAUCACCUGACAAAAUUAAAUAUCCCUGUAAAUUAGACAAUAAGCAGCAGGUAACAAAGUCUUUGCUUUGGAAUAUGUGCCAGGAAAAGUCAUCUUGUUUUUAGAUCACACCUUUCAGUUCACACAACAGAGGAUUGAGCAUCA
B18: chr13:99559765:99559766:-_ENSMUSG00000041685_ENSMUST00000040340|mus_hu|motif|central (ssRNA)
RNA: GGGAGUUCUACAGUCCGACGAUCCUGAACUUCCUUUAUUAAUUCUUGUAAUUUUCUAACAAGAUCCAAGUGACAAUUUGCGGAUUUCUCUGUAGAUGUUUUGAAUACAUCCCAUACUGGUGCAAAUGUUCCAAGUUGUGAAUACAACAGAGGAUUGAGCAUCA
B19: chrX:141883135:141883136:-_ENSMUSG00000041688_ENSMUST00000112835|mus_hu|motif|central (ssRNA)
RNA: GGGAGUUCUACAGUCCGACGAUCCUAUUAAUCUGGUUUCUAACUAAGACAUCCCAAAACCUCUACCCCCAACCCUUACCGGACACCCCCCACUUCCCUCACCCUCCCUAUACCCCUUAAAACUGAUCUUAAUGAUGCUAUCUGCAACAGAGGAUUGAGCAUCA
B20: chr7:17147909:17147910:-_ENSMUSG00000058230_ENSMUST00000075845|mus_hu|motif|central (ssRNA)
RNA: GGGAGUUCUACAGUCCGACGAUCCUUACGUUUGGCUGAAUAAAAAACAAUGUACCCAUGAACCAACCGGCUCUUUCUGAUGCGGAAGGAGGAAUGGUAUGAAAGAACAGACAGUUCAAUCCGCUUCUUGUGCAGUCCGAUUGGCAACAGAGGAUUGAGCAUCA
B21: 247054282_247055120_2089_CDS_ENSG00000153207_ENST00000391829|human|control|control (ssRNA)
RNA: GGGAGUUCUACAGUCCGACGAUCAUGAGAGAACCAAAGAACCACUUGUGCAUACUGACAGAUGAGGUGGGAAACCACAAACUUAUUGCUUAAGUCUAUCAGUCCUCUCUCAGUGAUCUCUCGGGCUUCUGAUGCAAAACAGCUCAACAGAGGAUUGAGCAUCA
B22: chr1:110121848:110121849:+_ENSG00000065135_ENST00000369851|hu_hu|motif|central (ssRNA)
RNA: GGGAGUUCUACAGUCCGACGAUCCCGUUUAAUCACUCCUGCUAGUUCUGGAGUCAUGACUCCUUCUUCAGCACUGCCAGCGGAAACAAAUAAUUGCCGGGCAUCAUCUGCCCUGGCAGCUUCCCCAAAGUCAAUCUUUAGCCGCAACAGAGGAUUGAGCAUCA

The binders below were run against T1, UNK ZnF1-3 (assay: nsRBNS (natural sequence RNA bind-n-seq); RBNS binding buffer (assumed for nsRBNS): 25 mM Tris pH 7.5, 150 mM KCl, 3 mM MgCl2, 0.01% Triton X-100, 500 ug/ml BSA, 20 U/ml SUPERase-In, 4 C; UNK is unkempt and MSI1 is Musashi-1; names of the RNAs are library labels; protein concentration not given here; high values mean tight binding).

Binder	binding signal
B1	1.03 enrichment R
B2	1.2 enrichment R
B3	1.04 enrichment R
B4	0.783 enrichment R
B5	0.763 enrichment R
B6	0.833 enrichment R
B7	2.03 enrichment R
B8	0.413 enrichment R
B9	0.965 enrichment R
B10	0.829 enrichment R
B11	1.15 enrichment R
B12	1.16 enrichment R
B13	0.739 enrichment R
B14	1.32 enrichment R
B15	0.78 enrichment R
B16	0.628 enrichment R
B17	1.15 enrichment R
B18	0.643 enrichment R
B19	1.14 enrichment R
B20	0.986 enrichment R
B21	1.34 enrichment R
B22	0.823 enrichment R
